Measured values reported in PMC4081100.
This is a selection; strong and weak results do not stand in their true shares. For some of these results: At the low end of the ranking the order means little. This is one part of the list. For some of these results: Construct or isoform of the protein are uncertain.

Columns and labels:
Test in all cases: universal protein binding microarray (PBM)
Details in all cases: transcription factors of Arabidopsis thaliana; high values mean tight binding; most listed sequences are background and not binding sites; double strand, one strand shown
GST-ANAC092(1-176) = molecular target: T1, GST-ANAC092(1-176) (UniProt Q9FKA0)
T1 sequence: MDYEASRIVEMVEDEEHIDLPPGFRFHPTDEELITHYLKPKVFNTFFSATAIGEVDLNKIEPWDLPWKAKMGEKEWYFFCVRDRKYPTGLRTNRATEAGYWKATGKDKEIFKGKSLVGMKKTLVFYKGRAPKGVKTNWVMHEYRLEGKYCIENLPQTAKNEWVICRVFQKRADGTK

GST-NTL6(1-168) = GST-NTL6(1-168) (UniProt Q9SCK6)
GST-ANAC019 NAC domain = molecular target: T2, GST-ANAC019 NAC domain (UniProt Q9C932)
T2 sequence: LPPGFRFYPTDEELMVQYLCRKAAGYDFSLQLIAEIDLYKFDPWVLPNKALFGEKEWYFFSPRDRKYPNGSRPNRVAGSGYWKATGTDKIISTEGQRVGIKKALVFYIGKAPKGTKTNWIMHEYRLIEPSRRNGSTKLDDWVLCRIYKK

GST-ANAC055(1-171) = molecular target: T3, GST-ANAC055(1-171) (UniProt Q9LDY8)
T3 sequence: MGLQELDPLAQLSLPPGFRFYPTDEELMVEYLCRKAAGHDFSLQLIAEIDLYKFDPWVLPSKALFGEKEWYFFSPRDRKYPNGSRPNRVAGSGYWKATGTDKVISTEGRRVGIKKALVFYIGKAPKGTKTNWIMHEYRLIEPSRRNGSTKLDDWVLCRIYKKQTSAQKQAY

GST-ATAF1 NAC domain = molecular target: T4, GST-ATAF1 NAC domain (UniProt Q39013)
T4 sequence: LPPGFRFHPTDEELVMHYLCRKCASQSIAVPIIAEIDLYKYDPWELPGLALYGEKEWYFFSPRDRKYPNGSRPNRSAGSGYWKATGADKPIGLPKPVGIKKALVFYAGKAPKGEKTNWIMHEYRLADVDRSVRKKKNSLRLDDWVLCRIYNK

GST-NAP(1-166) = molecular target: T5, GST-NAP(1-166) (UniProt O49255)
T5 sequence: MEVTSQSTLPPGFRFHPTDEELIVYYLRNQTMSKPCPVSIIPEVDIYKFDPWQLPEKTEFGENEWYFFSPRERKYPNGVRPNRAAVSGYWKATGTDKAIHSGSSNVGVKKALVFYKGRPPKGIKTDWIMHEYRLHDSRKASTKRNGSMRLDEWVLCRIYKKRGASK

GST-NST2(1-184) = molecular target: T6, GST-NST2(1-184) (UniProt Q9M274)
T6 sequence: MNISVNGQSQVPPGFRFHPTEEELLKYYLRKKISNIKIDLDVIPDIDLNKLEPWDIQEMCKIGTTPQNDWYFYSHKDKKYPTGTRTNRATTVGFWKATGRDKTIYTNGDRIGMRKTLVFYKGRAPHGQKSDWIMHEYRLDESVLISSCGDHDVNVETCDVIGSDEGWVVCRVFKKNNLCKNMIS

GST-NTL8 NAC domain = molecular target: T7, GST-NTL8 NAC domain (UniProt Q9XIN7)
T7 sequence: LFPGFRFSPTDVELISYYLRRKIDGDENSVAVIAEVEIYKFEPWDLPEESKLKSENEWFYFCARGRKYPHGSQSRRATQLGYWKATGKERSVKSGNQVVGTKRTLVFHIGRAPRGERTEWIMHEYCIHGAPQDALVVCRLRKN

GST-VND3 NAC domain = molecular target: T8, GST-VND3 NAC domain (UniProt Q9FH59)
T8 sequence: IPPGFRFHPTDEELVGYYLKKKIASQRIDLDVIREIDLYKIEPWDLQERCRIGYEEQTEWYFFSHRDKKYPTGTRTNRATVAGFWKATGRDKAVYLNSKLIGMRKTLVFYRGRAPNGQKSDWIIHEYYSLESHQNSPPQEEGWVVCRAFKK

[1] = molecular target: T9, GST-VOZ2 (Arabidopsis thaliana) (UniProt Q9SLB9)
T9 sequence: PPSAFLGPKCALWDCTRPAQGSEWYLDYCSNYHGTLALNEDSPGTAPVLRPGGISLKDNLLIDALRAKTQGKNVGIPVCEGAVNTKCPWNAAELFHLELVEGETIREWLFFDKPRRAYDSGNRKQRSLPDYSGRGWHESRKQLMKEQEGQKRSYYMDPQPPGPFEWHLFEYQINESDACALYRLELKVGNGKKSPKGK

GST-WRKY1(266-371) = GST-WRKY1(266-371) (UniProt Q9SI37)
GST-VND7 NAC domain = molecular target: T10, GST-VND7 NAC domain (UniProt Q9C8W9)
T10 sequence: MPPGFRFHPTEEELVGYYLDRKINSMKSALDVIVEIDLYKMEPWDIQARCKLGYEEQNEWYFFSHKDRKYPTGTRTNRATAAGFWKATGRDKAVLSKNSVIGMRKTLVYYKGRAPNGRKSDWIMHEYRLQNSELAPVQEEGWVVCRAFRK

[2] = molecular target: T11, GST-ANAC092(1-285) full length (UniProt Q9FKA0)
T11 sequence: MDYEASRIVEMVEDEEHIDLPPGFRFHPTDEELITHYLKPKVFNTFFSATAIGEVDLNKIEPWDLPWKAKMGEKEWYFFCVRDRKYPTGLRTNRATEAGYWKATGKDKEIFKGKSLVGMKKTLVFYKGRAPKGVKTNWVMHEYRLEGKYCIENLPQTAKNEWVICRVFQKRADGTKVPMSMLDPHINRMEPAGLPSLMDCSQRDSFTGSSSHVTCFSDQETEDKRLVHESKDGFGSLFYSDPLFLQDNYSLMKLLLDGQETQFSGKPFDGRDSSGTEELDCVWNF

Sequence	binding signal (GST-ANAC092(1-176)) [E-score]	binding signal (GST-NTL6(1-168)) [E-score]	binding signal (GST-ANAC019 NAC domain) [E-score]	binding signal (GST-ANAC055(1-171)) [E-score]	binding signal (GST-ATAF1 NAC domain) [E-score]	binding signal (GST-NAP(1-166)) [E-score]	binding signal (GST-NST2(1-184)) [E-score]	binding signal (GST-NTL8 NAC domain) [E-score]	binding signal (GST-VND3 NAC domain) [E-score]	binding signal [1] [E-score]	binding signal (GST-WRKY1(266-371)) [E-score]	binding signal (GST-VND7 NAC domain) [E-score]	binding signal [2] [E-score]
TGACTTAA	0.0109	0.342	-0.0328	0.0488	0.107	-0.00155	0.183	-0.0247	-0.0386	0.095	0.427		
AAAGGAAA	0.196	0.284	0.105			0.015		0.457	0.166	0.0817	0.00415		
AAGGTCAA			-0.106			0.0384			0.101	0.126		-0.00418	
AGGAAACG	0.207			0.149				0.451	0.109	0.0106	-0.0447		0.132
ACGCAAGG		0.0426			0.106				0.122	0.0129		0.128	
AGCGTCAA		-0.0331	-0.0415	-0.011		0.0978		0.12	0.00976	0.149		0.0921	
CACGCAAA	0.487		0.421					0.0878	0.396	0.157	0.0331		0.486
ACGTAAGT		0.212							0.414	0.06	0.112		
GAACACGC	0.382							-0.0779	0.138	-0.0491	-0.145		
CCCCGCCC	0.325		0.329	0.178				0.372	-0.0225	0.455	-0.0358		0.343
ATAGCGTA	0.437		-0.0295	0.136		0.128	0.355	-0.0375	0.137	0.216	0.00878		
CCCTCCCC				-0.0139		-0.0307	0.169		-0.0225	0.399		0.198	
AATTACGC		0.0398	-0.00422		0.18	0.144	0.199	-0.0947	0.119	0.187	-0.178		
GTACGCGA	0.245	-0.0431	0.0104			0.188		-0.0538	0.11	0.154	-0.0135		0.4
CTTGCTTC	0.288	0.295		-0.0421	-0.0219	-0.0691			-0.0922	0.0145	-0.0743		
AAGGTAAC	0.233	0.309				0.151		0.441	0.154	-0.0309	-0.0269		
ACGTTACA	0.354	-0.121	0.0262	0.157				-0.13	0.217	0.021	-0.181		
